# ± gives the standard deviation of the averaged measurements. The full ranking holds about 33,000 sequences; the median of “E-score (dimensionless, -0.5 to 0.5)” is about -0.046, and the highest 2% start at about 0.36. The list shows a part of the results.
# Tested on: T1, SpTbr T-box DNA-binding domain (GST fusion)
# T1 sequence: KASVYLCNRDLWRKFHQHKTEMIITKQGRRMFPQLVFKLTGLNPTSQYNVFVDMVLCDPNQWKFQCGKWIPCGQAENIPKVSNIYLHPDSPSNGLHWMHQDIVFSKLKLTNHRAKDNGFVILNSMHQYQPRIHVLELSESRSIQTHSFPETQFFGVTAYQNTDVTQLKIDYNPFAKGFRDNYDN
# Assay: PBM E-score of 8-mer (E-score (dimensionless, -0.5 to 0.5)); Tbr is Tbrain of the sea star Patiria miniata (Pm) or the sea urchin Strongylocentrotus purpuratus (Sp); higher = stronger binding preference; most listed sequences are background and not binding sites
# Details: the construct has about 5 more residues each side
# In short: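 Primer extension turned Universal Agilent oligonucleotide arrays double-stranded. They were incubated with 200 nM protein in PBS (pH 7.5); the protein was a GST-fused Tbr T-box DNA-binding domain expressed in BL21 E. coli at 20 °C and purified on glutathione. Every ungapped 8-mer was scored from the scanned, quantified probe intensities, and the Universal PBM Analysis Suite gave each an enrichment E-score averaged over duplicate arrays.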
row,Sequence,PBM E-score of 8-mer
1,CCAGGGGG,-0.046 ± 0.0097
2,CCGGGGTA,-0.108 ± 0.12
3,AATGTGGG,0.192 ± 0.026
4,ACTGGCCC,-0.0963 ± 0.011
5,GCGAACAA,0.242 ± 0.034
6,GCGTCTCA,-0.0113 ± 0.071
7,ACCGCCCA,-0.00764 ± 0.031
8,AAGAGACA,-0.138 ± 0.03
9,AACAGGGC,0.0715 ± 0.005
10,CTCAAATC,0.0277 ± 0.0069
11,AACCAAAG,-0.217 ± 0.045
12,CCACGGCC,0.13 ± 0.012
13,CGATCGAA,-0.0274 ± 0.047
14,ATGGCGCA,0.00485 ± 0.003
15,AATCCGCG,0.14 ± 0.038
16,ACTATTTA,0.0802 ± 0.047
17,CCAGTACC,0.00782 ± 0.031
18,GAGTAGTA,-0.197 ± 0.015
19,CCTACCCG,-0.052 ± 0.034
20,CACATAGC,0.237 ± 0.045
21,AGCCGGGG,-0.319 ± 0.0068
22,AGCTATGC,-0.2219 ± 0.00032
23,CAATGGCA,0.119 ± 0.014
24,CATCTGAC,0.00663 ± 0.031
25,CTACTTAC,0.146 ± 0.039

row,Sequence,PBM E-score of 8-mer
1,AATTCTGT,-0.0279 ± 0.099
2,GCCGAACC,-0.284 ± 0.062
3,AACAATTA,0.0621 ± 0.089
4,GGTGGGAC,0.196 ± 0.02
5,AACTATCC,-0.173 ± 0.026
6,ATTACACC,0.358 ± 0.057
7,CTACGCAC,0.0937 ± 0.02
8,CGTTACAC,0.17 ± 0.0073
9,GCGTTTCA,-0.224 ± 0.049
10,GGTGTCCA,0.278 ± 0.027
11,ACTGAAAG,-0.0707 ± 0.025
12,CCCTTGGA,-0.165 ± 0.069
13,CCAGCGTA,-0.141 ± 0.064
14,CAAAGTCA,-0.111 ± 0.044
15,AGATGCAC,-0.167 ± 0.066
16,CTATTCGA,-0.172 ± 0.1
17,CTTGCCGC,-0.101 ± 0.037
18,GAAGCTTC,-0.13 ± 0.07
19,GAATTCAA,-0.183 ± 0.029
20,GGCATCCA,-0.204 ± 0.016
21,CCGAGGTA,-0.232 ± 0.016
22,GGTTAGCA,0.257 ± 0.034
23,AAAAATGC,-0.17 ± 0.065
24,AAGCATTG,-0.0285 ± 0.025
25,GAACGGAC,0.108 ± 0.011

row,Sequence,PBM E-score of 8-mer
1,AGGAGATC,-0.171 ± 0.027
2,AGCCTTAA,-0.231 ± 0.065
3,AAGGGTAC,-0.0379 ± 0.051
4,AACAAGTG,0.298 ± 0.035
5,GTGGAGCA,-0.0556 ± 0.12
6,AATCTTCA,0.0329 ± 0.0011
7,CGACCCAC,0.00361 ± 0.024
8,AGGAAGCC,-0.213 ± 0.13
9,GCTCCGAA,-0.0394 ± 0.01
10,AGTATTCC,-0.0913 ± 0.0088
11,CAGCACTA,-0.222 ± 0.027
12,AAGTATTG,-0.0751 ± 0.015
13,CCCAGTTC,-0.182 ± 0.031
14,GGAGCCGA,0.068 ± 0.06
15,TGTCCACA,0.194 ± 0.038
16,TATTTGCA,-0.0069 ± 0.0097
17,ACACTGAT,0.138 ± 0.017
18,GTGTTTGA,0.2 ± 0.022
19,ACAAGAAA,-0.213 ± 0.068
20,ACCAGGAC,-0.0953 ± 0.096
21,AGGCGAGA,0.373 ± 0.012
22,AGAATGAG,-0.244 ± 0.1
23,CGTAGGAC,-0.173 ± 0.15
24,GACACAAA,0.131 ± 0.02
25,CCTTTCTA,-0.051 ± 0.018

row,Sequence,PBM E-score of 8-mer
1,CGGAATCC,-0.281 ± 0.036
2,CTCGTGCA,-0.01 ± 0.0087
3,AATCCATA,-0.12 ± 0.025
4,CGCGATAC,0.216 ± 0.031
5,AGAATCAC,0.146 ± 0.038
6,CCACGTCG,-0.0397 ± 0.074
7,GCTTACTA,-0.289 ± 0.027
8,ACAACGGG,0.0126 ± 0.012
9,CGACTAGA,-0.189 ± 0.11
10,CCAGGCTA,-0.0877 ± 0.07
11,ACTCACCG,-0.0434 ± 0.074
12,CATTTGAC,0.0519 ± 0.013
13,CCGACGGA,-0.145 ± 0.038
14,GTAGGACA,-0.123 ± 0.1
15,CTTGAGCA,-0.0556 ± 0.08
16,ACGGCAAT,-0.046 ± 0.033
17,CAGGCTCG,0.137 ± 0.005
18,TCACGTGA,0.121 ± 0.017
19,GTCCCAAA,-0.1864 ± 0.0015
20,CTAACTAC,-0.126 ± 0.1
21,GCGACTCA,0.113 ± 0.0099
22,GGAACAAA,-0.243 ± 0.025
23,GAAAATTA,-0.0582 ± 0.0082
24,CTAGGACC,-0.189 ± 0.05
25,AGTAGAGA,-0.138 ± 0.032

row,Sequence,PBM E-score of 8-mer
1,CCCGCGTA,-0.068 ± 0.043
2,TACCGGAA,-0.116 ± 0.02
3,CTCGGTAC,-0.085 ± 0.026
4,CCCGACAA,0.154 ± 0.02
5,GCGCTCAC,0.227 ± 0.024
6,ACAATGGG,-0.135 ± 0.044
7,CGTCTGTA,-0.0863 ± 0.06
8,AGTATAAA,-0.145 ± 0.023
9,GAGCGGGC,0.0434 ± 0.076
10,AGGATGAA,-0.147 ± 0.026
11,ATGGGCAC,-0.234 ± 0.035
12,AAAGCTCA,-0.0105 ± 0.0013
13,AGACAATC,-0.0496 ± 0.029
14,GAAACCCA,-0.0056 ± 0.087
15,CTTAACAA,0.243 ± 0.0056
16,AGTCCCGG,-0.0982 ± 0.0088
17,TGAGACCA,-0.0282 ± 0.077
18,ATCTGTTG,0.0461 ± 0.032
19,AGCTGCGG,-0.169 ± 0.037
20,GCGCTATA,0.0546 ± 0.067
21,CACGTTAA,0.132 ± 0.0036
22,ACAGATCG,0.145 ± 0.023
23,CTGCACGC,-0.0619 ± 0.018
24,AAGCCTAG,-0.28 ± 0.055
25,GCTTATAA,-0.245 ± 0.0063

row,Sequence,PBM E-score of 8-mer
1,ACCGCAGA,-0.255 ± 0.025
2,TCTCGAGA,-0.0187 ± 0.0036
3,AGGTCTAT,-0.337 ± 0.021
4,AGATCAAT,-0.155 ± 0.054
5,CTATATGC,0.0143 ± 0.068
6,CGACGCTA,0.133 ± 0.039
7,AGCCGAGG,0.0655 ± 0.041
8,AATTTGAA,-0.21 ± 0.078
9,GATCTAGC,-0.178 ± 0.0028
10,CCGATAAG,-0.134 ± 0.12
11,ACATGTTA,0.00883 ± 0.016
12,CTAGTATC,-0.102 ± 0.054
13,AACATACT,-0.0527 ± 0.066
14,CATAAGCA,0.0453 ± 0.02
15,TAACACCA,0.43 ± 0.011
16,AGCCTTAG,-0.311 ± 0.059
17,AGGTGTGC,0.445 ± 0.014
18,ACATTATG,-0.0516 ± 0.044
19,GATTGAAA,-0.118 ± 0.062
20,CCCGTGCA,-0.113 ± 0.03
21,CCTCAGAG,0.0663 ± 0.019
22,ACGACAGT,0.148 ± 0.01
23,AATACTCA,-0.0624 ± 0.011
24,TACGCGCA,0.0375 ± 0.032
25,AGTCTGGC,-0.252 ± 0.0068

row,Sequence,PBM E-score of 8-mer
1,CGAACATC,0.0324 ± 0.0025
2,GTCCCAGA,-0.196 ± 0.066
3,CTCACGAC,0.105 ± 0.023
4,CCCAAAAG,-0.137 ± 0.013
5,AAGGCTGG,-0.0878 ± 0.024
6,AGTGGAGA,-0.0675 ± 0.13
7,ATAGTGGC,0.0512 ± 0.057
8,ATAGGGGG,-0.142 ± 0.03
9,AAGGAACG,-0.138 ± 0.027
10,ATCATACG,-0.0455 ± 0.062
11,AGCCGCCG,0.0372 ± 0.077
12,ATACTGAA,-0.174 ± 0.019
13,AACACCTG,0.463 ± 0.0057
14,ATACGAGC,-0.0328 ± 0.004
15,CATACTGG,-0.125 ± 0.081
16,GTTCTGTA,0.00666 ± 0.0032
17,ACTTCAGG,0.111 ± 0.13
18,AGAACATA,0.0118 ± 0.012
19,CAACGCCA,0.106 ± 0.015
20,TTCCCAAA,-0.205 ± 0.086
21,CATGCTGA,-0.00241 ± 0.01
22,ATCCGGCC,-0.219 ± 0.015

# — the supplement of paper PMC4166925
